Test [1] addresses T1, human PD-L1 expressed on CHO-K1 cells (Genscript, Cat #M00543) (human, UniProt Q9NZQ7). The test can be described thus: cell-based or functional assay.
Test [2] addresses T1, human PD-L1 expressed on CHO-K1 cells …. The test can be described thus: FACS, CHO-K1/human PD-L1 cells. The method, then: PD-L1 stable cell line binding activity assessment of 12 mouse mAbs was carried out using FACS. CHO-K1 cells expressing human PD-L1 (Genscript, Cat #M00543) were dissociated from adherent culture flasks and mixed with varying concentrations of antibodies. The antibody and cells were incubated for 30 minutes at room temperature, washed three times with FACS buffer (PBS containing 1% BSA). PE-labeled goat anti-mouse IgG (minimal x-reactivity) secondary antibody (BioLegend, Cat #405307) was added and incubated at room temperature for 15 minutes. Cells were washed again with FACS buffer and analyzed by FACSCalibur (BD Bioscience, San Jose, Calif.) and Flowjo software. Data were analyzed with Prism 6 (GraphPad Software, San Diego, Calif.) using non-linear regression, and EC₅₀ values were calculated (FIGS. 2A-2L and Table 3).
Human and cynomolgus PD-L1 stable cell line binding activity assessment of chimeric and humanized mAbs was carried out using FACS as described above (FIGS. 9A-9L and FIGS. 10A-10L and Tables 13 and 14).
(Flow cytometry measures light scatter and fluorescence of single cells or particles in a stream.)

For test [3], the target named is T2, cynomolgus PD-L1 overexpressing stable cell line (cynomolgus, UniProt G7PSE7 19-290).
T2 construct: also called cynomolgus PD-L1 overexpressing cell line
The test can be described thus: FACS, cynomolgus PD-L1 cell line.

Test [4] addresses T3, His-tagged PD-L1 ECD protein (ACROBiosystems) (human, UniProt Q9NZQ7 in part).
T3 construct: Bought protein; also called PD-L1-His; PD-L1/His; not shown: His tag
As to the kind of experiment: SPR, supernatant IgG captured, PD-L1-His analyte. On the technique in general: SPR reads the build-up and loss of mass on a sensor chip optically.

For test [5], the target named is cynomolgus PD-L1 Fc-fusion protein (cynomolgus, UniProt G7PSE7 19-238). The test can be described thus: SPR, cyno PD-L1-Fc immobilised, antibody analyte.
Test [6] deals with T3, His-tagged PD-L1 ECD protein …. The test can be described thus: SPR, IgG captured by anti-human Fc, PD-L1-His analyte. The method, then: Briefly, capturing antibody (anti-mouse Fc antibody for the affinity measurement of mouse mAbs, or anti-human Fc antibody for the affinity measurement of chimeric and humanized mAbs, GE healthcare) was immobilized on a Biacore™ CM5 chip to approximately 7,000 RU using EDC-activated amine coupling chemistry. Antibody of interest (5 μg/ml) was captured for 60 seconds onto the sensorchip surface. His-tagged PD-L1 ECD protein (ACROBiosystems) was flowed over the sensorchip surface at a series concentrations. Flow rate was 30 μl/min in all experiments. Association and dissociation phases were 5 and 15 min, respectively. The chip was regenerated using Glycine/HCl pH 1.5. Captured antibody and antigen were removed between each cycle using 50 mM HCl in order to ensure a fresh binding surface for each concentration of antigen. The resulting sensorgrams were fit globally using a 1:1 binding model in order to calculate on- and off-rates (ka and kd, respectively), as well as affinities (KD).

The target of test [7] is T1, human PD-L1 expressed on CHO-K1 cells …. The test can be described thus: FACS competition vs biotin-PD-1-Fc on CHO-K1/human PD-L1 cells. As for the experimental part:
A series of diluted mouse mAbs (concentration starting from 900 nM, 3 fold dilution, 50 μl per well) were added afterwards. The mixture was incubated at 4° C. for 30 minutes, washed twice with wash buffer, followed by the addition of PEcy5/streptavidin (1 μg/ml, 150 μl/well). The plates were again incubated at 4° C. for 30 minutes before the cells in each well were analyzed by FACSCalibur (BD Bioscience, San Jose, Calif.) and Flowjo software.

Where only a bound is given, the exact number is not on record here.

B1: 53C1_VH1.M3-VL1.M1 (antibody, human IgG1, kappa)
heavy: EVQLVQSGAEVKKPGASVKVSCKASGYIFTGYGITWVRQAPGQGLEWMGEIFPRRVQTYYSEKFKGRVTMTTDTSTSTAYMELRSLRSDDTAVYYCARDYDPYFALDYWGQGTTVTVSSASTKGPSVFPLAPSSKSTSGGTAALGCLVKDYFPEPVTVSWNSGALTSGVHTFPAVLQSSGLYSLSSVVTVPSSSLGTQTYICNVNHKPSNTKVDKKV[sequence of human IgG1 Fc with changes omitted]
light: DIQMTQSPSSLSASVGDRVTITCRASQDVSTAVDWYQQKPGKAPKLLIYSASYRYTGVPDRFSGSGSGTDFTFTISSLQPEDIATYYCQQHYSIPFTFGQGTKLEIKRTVAAPSVFIFPPSDEQLKSGTASVVCLLNNFYPREAKVQWKVDNALQSGNSQESVTEQDSKDSTYSLSSTLTLSKADYEKHKVYACEVTHQGLSSPVTKSFNRGEC
notes: Humanized, VH N57Q in the entry; hIgG1 effector-less Fc, kappa; see recheck on K24R in the .M1 light chain
Broadly, the EC50 is the concentration at which the effect is half-maximal. Low readings indicate higher potency in that assay, high ones lower potency in that assay. As a reminder, the Kd is a measure of binding affinity in units of concentration. A lower Kd goes with a tighter complex. The term koff denotes a measure of how fast the partners let go of each other. The low end stands for slow dissociation, the high end for fast dissociation. As usually defined, the kon is the second-order rate constant of association. A higher kon goes with fast association. One may read the IC50 as the concentration at which inhibition is half-maximal. Low values mean greater potency, high ones weaker potency. For the molecule B1, in test [1], the “EC50, PD-L1 cell-based luciferase reporter assay” value amounted to 1.47 nM. In test [2], a half-maximal response (EC50) required 1.03 nM and the “Top (best-fit value)” value amounted to 6430. In test [3], it took 2.63 nM to reach a half-maximal effect (EC50) and the “Top (best-fit value)” value worked out at 8420. For the same molecule, in test [4], the Kd came out at 0.32 nM, the off-rate constant (koff) was 0.0001 s⁻¹ and the kon is 320000 M⁻¹ s⁻¹. In test [5], this molecule registered a Kd of 0.95 nM, a dissociation rate constant (koff) of 9.4e-05 s⁻¹ and a kon of 98000 M⁻¹ s⁻¹. Also, in test [6], the Kd was 0.57 nM, the off-rate (koff) worked out at 0.00014 s⁻¹ and the kon was found to be 250000 M⁻¹ s⁻¹. For the same molecule, in test [7], the 50% inhibitory concentration (IC50) came to 0.28 nM.

B2: 53C1_VH5.M3-VL1.M1 (antibody, human IgG1, kappa)
heavy: EVQLVQSGAEVKKPGASVKVSCKASGYIFTGYGITWVRQAPGQGLEWMGEIFPRRVQTYYSEKFKGRVTMTADTSTSTAYMELRSLRSDDTAVYYCARDYDPYFALDYWGQGTTVTVSSASTKGPSVFPLAPSSKSTSGGTAALGCLVKDYFPEPVTVSWNSGALTSGVHTFPAVLQSSGLYSLSSVVTVPSSSLGTQTYICNVNHKPSNTKVDKKV[sequence of human IgG1 Fc with changes omitted]
light: DIQMTQSPSSLSASVGDRVTITCRASQDVSTAVDWYQQKPGKAPKLLIYSASYRYTGVPDRFSGSGSGTDFTFTISSLQPEDIATYYCQQHYSIPFTFGQGTKLEIKRTVAAPSVFIFPPSDEQLKSGTASVVCLLNNFYPREAKVQWKVDNALQSGNSQESVTEQDSKDSTYSLSSTLTLSKADYEKHKVYACEVTHQGLSSPVTKSFNRGEC
notes: as for B1
Turning to B2, in test [1], the “EC50, PD-L1 cell-based luciferase reporter assay” value is 1.31 nM. Further, the EC50 was found to be 1.06 nM in test [2] and 2.73 nM in test [3]. In addition, the “Top (best-fit value)” value was 6380 in test [2] and 8570 in test [3]. Moreover, the Kd in test [4] was 0.16 nM; in test [5] it was less than 0.069 nM; in test [6], 0.4 nM. Besides, the koff in test [4] amounted to 6.1e-05 s⁻¹; in test [6] it was 0.00011 s⁻¹. In addition, the values for the kon in test [4], in test [5] and in test [6] were 380000 M⁻¹ s⁻¹, 140000 M⁻¹ s⁻¹ and 290000 M⁻¹ s⁻¹, respectively. Besides, the concentration for half-maximal inhibition (IC50) in test [7] is 0.298 nM.

Values taken from patent US20220135687A1 (NANJING LEGEND BIOTECH, published 2022).
